These results are taken from the RNAGym collection of RNA variant scans (doi:10.1093/nar/gkz1192).

Sequences and labels used below:
B1: CPEB3 Ribozyme (parent)
chain: UAACAGGGGGCCACAGCAGAAGCGUUCACGUCGCAGCCCCUGUCAGAUUCUGGUGAAUCUGCGAAUUCUGCUGUAUAUCUC

The source gives no read counts; variants with many changes may rest on few reads.

Variants of B1 are the subject of this series. Put plainly: self-cleavage, relative activity (ratio to wild type); higher = more cleavage; in vitro, sequencing. In a few lines: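 After error-prone PCR and barcoding, CPEB3 ribozyme mutant libraries were transcribed with T7 RNA polymerase at 37°C for 5 hours, then given 15 min with DNase I before an EDTA stop, and they cleaved during both steps. Reverse transcription with template switching preceded Illumina sequencing. Relative activity divides a variant's cleaved/total read fraction by the unmutated ribozyme's. At least 5 reads were required per variant, and three batches were averaged.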
As to U26C U60G A64G U69A, the self-cleavage was determined as 0.09.

With A28G C29U U41A C44G A45U U48C A77U, the self-cleavage was 0.13. In the case of A28U C29U A77G it was 0.2; in that of A28G U41A U48C U49C U54C U60A U72C, 0.02. In the case of A28C C44U C50A A65C C71G U80C it was 0.02; in that of A28G U54C A56U A64G, 0.13; in that of C27A C40U U60A U69A, 0.11.

C27A A45U A64G: the self-cleavage is 0.13. In the case of U26G U49C G55A U78C it was 0.04; in that of A28G A35U U43C A56U, 0.07; in that of A28G C40U U72A A75U, 0.36. In the case of C27A A28G A64G U67C it was 0.11; in that of A28U U54C U80C, 0.85.

For the variant A28G G42A A47G, the self-cleavage worked out at 0.44. The same measure for U26G U31C G53A U80C: 0.1. The same measure for A28C C39U U60C: 0.11. As to C27A G53A U54G A65G U69A A77G, the self-cleavage was 0.05. On to A28G A47U U48C U66C U72A U74C U76C, for which the self-cleavage stood at 0.04.

Regarding A28G C39U G55A G61A C62A U66C U72A, the self-cleavage was 0.05.

Take A28G G42A U48A U72A: the self-cleavage came out at 0.07. In the case of C27A U49C U78A it was 0.11. As to C27U G55U U80A, the self-cleavage came out at 0.17. The same measure for U26C U67C U76C: 0.33; for A28U C38U A47G A56G: 0.29; for U26G U43A A47G: 0.05. The same measure for A28C A56G U69A U72C: 0.1. With A28G A65C U67C, the self-cleavage is 0.12. Regarding A28G A45G U48C A65G, the self-cleavage turned out to be 0.11. In the case of A28G U43C U54C it was 0.08; in that of A28G U51A U69C, 0.21. A28G U49A G63A U80C: the self-cleavage was 0.73. In the case of U26C U48A A75G A77G it was 0.1. The same measure for A28U A45G U69A: 0.19; for A28U A35U U43C U69A: 0.09; for A28C A45G U74C: 0.6. In the case of U26C U72C A77U it was 0.62. A28G C44U A45G: the self-cleavage is 0.15. Take A28G U72C U76C A77G: the self-cleavage was 0.87. Turning to A28G U41C U51A A65C U78C, the self-cleavage worked out at 0.16. As to A28U U31A A57G, the self-cleavage is 0.35. In the case of A28G C34A U41C A56U U66C C79U, the self-cleavage is 0.14. In the case of A28G U43C A47G, the self-cleavage turned out to be 0.34. The same measure for A28U U58C U67A: 0.19. For A28G C37U U67C, the self-cleavage worked out at 0.04. With A28C C29G C37A, the self-cleavage is 0.15. The same measure for A28U U49C G53A U80C: 0.44; for A28U C34U U41A U54A U76C: 0.11; for U26C U51A U72A: 0.1. In the case of U26G U48C U51A it was 0.42; in that of C27U U43C A65G U78A, 0.18; in that of U26C U43A U51A C59U A64G, 0.13. In the case of A28U U60C A65G U69A U76A A77U it was 0.15; in that of A28U C40G A64G U69C, 0.13. For A28U U67C U74A, the self-cleavage was 0.15. In the case of A28G U41C A75U it was 0.79; in that of C27A G53U A56U A57G, 0.06; in that of A28G A56U U60A U66C U78C, 0.23. As to A28G U48C G52A A77G, the self-cleavage turned out to be 0.33.

In the case of C27A U41C C68A, the self-cleavage came out at 0.19. In the case of C27U G33A U54A A64U U66C U78C it was 0.06; in that of C27U A35U U48A U66C, 0.16. In the case of A28G U41A G63A it was 0.11. The same measure for A28G U74C A75U: 1.21; for A28G U72C G73A: 0.96. Take A28G A45U U78C: the self-cleavage stood at 0.17. With U26C U49C A77G, the self-cleavage is 0.21. With A28U U43C A45U U49A U51C A65G U66A, the self-cleavage worked out at 0.05. The same measure for U26G G33C C40U G55C A57G U58C: 0.07; for A28G U41C U43C A56G A75U: 0.05; for A28G A35G C62U U66C U72C: 0.12. The same measure for A28U U51A U58A: 0.19; for A28G U31C U43C U58C: 0.19; for C27G A45G A64U: 0.1.

For A28U C39G U49C, the self-cleavage worked out at 0.16. The same measure for A28G U31C U41C U54C: 0.32.

Consider A28G U43A G63A A75U, for which the self-cleavage worked out at 0.85. The same measure for U26G U41C C44G A45G A47G U69A U78C: 0; for A28G U31A A45C: 0.12; for A28U U31C U54C A64U U69C U72G: 0.09. The same measure for U26G A28G U41A C71A G73A: 0.05; for A28G U48C A57G A65G U66A: 0.13; for U26C U51A A57G: 0.16. The same measure for U26G A47C A57G: 0.14; for A28U U43C A57G A65G: 0.12; for A28U C29U U31C A56G A57U: 0.1.

For the variant A28G U31A U41C A56G U76C, the self-cleavage was 0.14. Take U26C U72A A75U: the self-cleavage turned out to be 0.57.

With A28U C68U U74C, the self-cleavage worked out at 1.02.

Take C27U U58C U72A U80A: the self-cleavage worked out at 0.31. The same measure for C27U G33A U51G A57G U58C: 0.21; for C29A U31C U51C U54C A56G U72C U80C: 0.08. In the case of U26G C32G U51A A77G it was 0.06; in that of A28G G33A C68A G73A, 0.21. In the case of A28G A45G U54G U60C C71G it was 0.14; in that of A28G C37U U60C A64G U67A U72A, 0.12; in that of A28U A47G U48C U74A, 0.19. Regarding A28U U66C U72C, the self-cleavage was 0.26. With U26C U43C G63A, the self-cleavage worked out at 0.65. The same measure for A28G U43C A65U: 0.41; for A28C U41C U54A: 0.37; for C27A U31C U80C: 0.21. For A28C U78C U80C, the self-cleavage was found to be 0.37. Regarding A28G U31C A56U U66C, the self-cleavage is 0.07.

U26C U54A U80C: the self-cleavage was 0.53. The same measure for C27G U41A U66C: 0.04. In the case of A28U C38G U43G U54C A57U it was 0.05; in that of A28G U43C U72G, 0.15; in that of A28G C40A U54A U67A U74A, 0.09.

Consider A28G A35G U41G A45G A65G U72A, for which the self-cleavage is 0. In the case of A28G U67C U78C it was 0.42; in that of A28G C32U A64G U80C, 0.09. Regarding A28U A35U U51C U60A U66C, the self-cleavage amounted to 0.08.

For A28G C59A U67C, the self-cleavage was determined as 0.12. In the case of A28G U41A A56G A57G it was 0.24; in that of A28G U66A A77U, 0.28; in that of A28G C29U G70A, 0.15. The same measure for A28G U31C A45G U80C: 0.16; for A28G U31A A57G U60C G70C U78C: 0.07; for A28U A47G U72A: 0.37.

On to A28G U41A A57G U78C, for which the self-cleavage worked out at 0.29. In the case of A28C C40U A56G it was 0.29. In the case of A28G U41C U76C it was 0.63. As to A28C G42A U51C A56G U80C, the self-cleavage amounted to 0.09.

Regarding A28U U31A A65U U66C, the self-cleavage came out at 0.18. In the case of A28G U41C U72C U74C A75G it was 0.21. For the variant C27G A47G U60A C71G, the self-cleavage turned out to be 0.12. The same measure for A28C U51A U60A A75G: 0.18; for A28U U54C U72G: 0.78; for A28G A45G G61A U72C U78C: 0.42. The same measure for U26C U43A U49C U58C A64U U72C U74C: 0.16; for A28G C29U U54C A64U: 0.12; for U26G A28G G33C U48C U60C C71A: 0.05. For the variant C27U U43C U60A U69C, the self-cleavage is 0.12. In the case of C29A A35G U67A U69A it was 0.28; in that of A28G C59G U60C A64G U67C U78A, 0.07; in that of A28U G30U U41A A56G, 0.07.

On to U26G U41C C62U A64G A65G, for which the self-cleavage worked out at 0.07. In the case of U26C U43C A45G U72C A77U U80C it was 0.89; in that of A28U U48C U67C, 0.17; in that of A28G G33C U41C, 0.17. In the case of C27U U54C U72C it was 0.24; in that of A28U U43C U69A, 0.17. In the case of A28G U69A A75U it was 0.2; in that of U26C U51A U78A U80C, 0.51; in that of A28U U51G U80C, 1.07. As to A28U U51A G52U U67A U76C, the self-cleavage was 0.47. As for A28G C37U U72C, the self-cleavage came out at 0.33.

A28U A56U U80C: the self-cleavage came out at 0.8. As to C27A A35G A56U U66C U78A, the self-cleavage is 0.07. As for A28G G30A U31C, the self-cleavage came out at 0.34. As for U26G U43A U51C A56G U69C U72C U76A, the self-cleavage stood at 0.04. Turning to A28G U41C C68A, the self-cleavage stood at 0.16. In the case of A28U C38U C81A it was 1.03; in that of A28U U43A U67A U69A U72A U80C, 0.21.

Turning to U26C U60C U76C, the self-cleavage is 0.16. In the case of A28G A47G A65G it was 0.07. In the case of C29A U31C C40U G52U U69A it was 0.17; in that of A28G A57G U72C, 0.41.

A28G G46U A64U: the self-cleavage was found to be 0.17. The same measure for U26G U51C A64G: 0.17; for A28U C29U C38U U72A U76C: 0.09; for A28U U49C U76A: 0.24. In the case of U26G G30A C39U it was 0.43. In the case of A28U A64U G73A it was 0.45; in that of A28G G52C G73A, 1.26; in that of C27U C32A C50U U51G A65U, 0.04. A28C C32U U49C U54C: the self-cleavage came to 0.07.
